# Several values for one entry are separate records, joined by “and”; a condition that tells them apart may be missing. Equal values may be shown once. The inconclusive results got no clear call from the source; some entries with a clear call stand among them for comparison. Potencies beside an inconclusive call are fits to weak or partial responses and may not hold up. Activity calls are given as the source filed them. Calls come from the whole dose curve; as a rule, active = well fitted activation curve with a large enough effect in the signal ratio, with a control signal flat (not every such curve was filed as active); inconclusive = small, poorly fitted or top-dose-only effect, or effect the other way, or a change in a side signal; inactive = flat fitted curve, though single readings scatter; the % refers to the signal ratio.
# Experiment: qHTS Assay for Identification of Small Molecule Agonists for Hypoxia Response Element Signaling Pathway (AID 914); for activation: top concentration of the series differs between compounds; % of control where 0% means no effect
# Settings: ME-180 (cervical carcinoma) HRE-bla reporter, beta-lactamase ratio, CoCl2, 17 h; activation: active compounds read high
# In short: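 Positive modulation of EC50 CoCl2-induced hypoxia response element signaling is measured in ME-180 cells with a beta-lactamase reporter. Compounds are titrated, incubation runs 17 hours, and %Activity derives from the blue/green ratio.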
# Potency is the fitted concentration of half-maximal effect; tags give direction and shape of the fitted curve or compound fluorescence and quenching.
SMILES,activation,Potency
COC(=O)C/C=C\[C@@H](C)[C@@H](/C=N\OCC[C@@H]1C=C[C@H](OC(C)=O)[C@H](COC(C)=O)O1)OC,inconclusive: -4.83%,
COc1ccc(Oc2nc3c(c(=O)n(C)c(=O)n3C)n2Cc2cccc(OC)c2)cc1,,"inconclusive: 1260 nM [inhibitor, full curve, poor fit]"
Cc1cccc(-n2ncc3c(NCc4ccco4)ncnc32)c1,inactive: 8.46%,
N[C@@H](Cc1c[nH]c2ccc([N+](=O)[O-])cc12)C(=O)O,inactive: -2.55%,
CC1(C)Cc2ccccc2-c2c1c(=O)n(-c1ccccc1)c1nnnn21,inconclusive: -28.4%,
CC1(C)Cc2c(C#N)c(SCc3nc4ccccc4[nH]3)nc(N3CCOCC3)c2CO1,,"inconclusive: 12600 nM [inhibitor, partial curve]"
NC(N)=NNC(=O)C(=O)O,,"inconclusive: 100 nM [inhibitor, partial curve]"
Cc1cc(=O)oc2cc(O)c(CN(C)CC(=O)O)cc12,inactive: 2.1%,
O=S(=O)(/C=C/c1ccccc1)Nc1ccc2c(c1)OCO2,inconclusive: -4.42%,
Cc1ccc(C(=O)C2=C(O)C(=O)N(c3ncccn3)C2c2ccc(Cl)cc2)o1 (centres undefined),,"inconclusive: 10000 nM [inhibitor, partial curve]"
CCOC(=O)CC(=O)CSc1nc(N)c(C#N)c(-c2ccc(F)cc2)c1C#N,inconclusive: -35.1%,
C[C@@](N)(Cc1c[nH]c2ccccc12)C(=O)O,inconclusive: -15.8%,
COc1cc(NC(=O)NC(C)(C(F)(F)F)C(F)(F)F)cc(OC)c1OC,inactive: -29.2%,
N[C@H](Cc1cc(I)c(Oc2ccc(O)c(I)c2)c(I)c1)C(=O)O,inconclusive: -21.9%,
CC1=CC(c2ccccc2)n2nc(N3C(=O)C4CC=CCC4C3=O)nc2N1 (centres undefined),inactive: 6.95%,
CN(C)CC(O)COc1cccc(OCC(O)CN(C)C)c1 (centres undefined),,"inconclusive: 5010 nM [inhibitor, single point]"
COCC(=O)N1CCC2(CC1)CN(C(c1ccccc1)c1ccccc1)C2,,"inconclusive: 6310 nM [activator, single point]"

SMILES,activation,Potency
Cn1c(=O)c2c(nc(Br)n2Cc2ccc3ccccc3c2)n(C)c1=O,,"inconclusive: 12600 nM [inhibitor, single point]"
CN(/N=C\c1ccccc1O)c1ccc2ccccc2n1,,"inconclusive: 398 nM [inhibitor, partial curve]"
Cc1cc(CC(=O)O)c(C)cc1CC(=O)O,inactive: 5.91%,
CO/N=C(\C)CCN1CCc2nc(-c3ccccc3)c(-c3ccccc3)cc2C1,inconclusive: 10.6%,
c1ccc2c(c1)C(=Nc1ccc(N=C3c4ccccc4-c4ccccc43)cc1)c1ccccc1-2,inconclusive: -3.43%,
O=c1cc(N=Nc2ccc(O)cc2)[nH]c(=O)[nH]1,inactive: -26.3%,
COc1ccc(NC(=S)Nc2ccccc2)cc1,inactive: 8.18%,
C[C@@H](c1ccccc1)N1C(=O)[C@H]2[C@@H]3[C@H](O)[C@H](O)CC(=O)[C@H]3CC[C@H]2C1=O,inactive: -2.53% and inactive: -2.06%,
CCOC(=O)C(CC(=O)O)N1CCCCC1 (centres undefined),inactive: 11.2%,
CCCCOc1nc2ccccc2nc1C(C#N)C(=O)NC1CCCCC1 (centres undefined),,active: 12600 nM
O=C(Nc1cccc(F)c1)N1CCCC2(CCN(S(=O)(=O)c3ccccc3)CC2)C1,,"inconclusive: 501 nM [inhibitor, full curve, poor fit]"
COc1cccc(C(=O)N2CCN(Cc3ccccn3)CC2)c1OC,inconclusive: 25.4%,
CCOCc1nc(N)[nH]c(=O)c1Cc1ccc(OC(C)C)cc1,,"inconclusive: 2000 nM [activator, single point]"
CCC(=O)Nc1ncnc2ncn(C(=O)CC)c12,inconclusive: -0.782%,
CCOc1ccc(C2C(C(=O)c3ccc(C)o3)=C(O)C(=O)N2CCCN(CC)CC)cc1 (centres undefined),,"inconclusive: 1260 nM [inhibitor, single point]"
COc1cccc(N2C(=O)C(O)=C(C(C)=O)C2c2ccc(OC)c(OC)c2)c1 (centres undefined),,"inconclusive: 1580 nM [inhibitor, full curve, poor fit]"
CCOC(=O)C(c1ccccc1)N1CCN(c2ccc(OC)cc2)CC1 (centres undefined),inactive: -13.4%,

# Source: PubChem BioAssay (NCATS)
